# Test results taken from patent publication US20110152173A1 (EMERGENT PRODUCT DEVELOPMENT SEATTLE, published 2011).
# T1: mouse TWEAK (mouse, UniProt O54907 105-249, limits assumed)
# T1 sequence (looked up): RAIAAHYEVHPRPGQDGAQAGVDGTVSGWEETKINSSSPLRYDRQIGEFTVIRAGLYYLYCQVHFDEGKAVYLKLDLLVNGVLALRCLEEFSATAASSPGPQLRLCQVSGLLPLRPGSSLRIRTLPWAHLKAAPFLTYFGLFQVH
# T2: human TWEAK (human, UniProt O43508 93-249, limits assumed)
# T2 sequence (looked up): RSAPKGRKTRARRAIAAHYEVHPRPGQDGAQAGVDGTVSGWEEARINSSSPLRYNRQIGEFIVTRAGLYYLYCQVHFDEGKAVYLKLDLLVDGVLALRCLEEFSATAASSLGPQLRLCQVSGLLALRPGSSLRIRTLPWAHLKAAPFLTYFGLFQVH
# B1: Xceptor comprising a TNFRSF1B ectodomain and a TWEAKR ectodomain (Fc fusion)
# chain: LPAQVAFTPYAPEPGSTCRLREYYDQTAQMCCSKCSPGQHAKVFCTKTSDTVCDSCEDSTYTQLWNWVPECLSCGSRCSSDQVETQACTREQNRICTCRPGWYCALSKQEGCRLCAPLRKCRPGFGVARPGTETSDVVCKPCAPGTFSNTTSSTDICRPHQICNVVAIPGNASMDAVCTSTSPTRSMAPGAVHLPQPVSTRSQHTQPTPEPSTAPSTSFLLPMGPSPPAEGSTGDTGEPKSSDKTHTCPPCPAPEAAGAPSVFLFPPKPKDTLMISRTPEVTCVVVDVSHEDPEVKFNWYVDGVEVHNAKTKPREEQYNSTYRVVSVLTVLHQDWLNGKAYACAVSNKALPAPIEKTISKAKGQPREPQVYTLPPSRDELTKNQVSLTCLVKGFYPSDIAVEWESNGQPENNYKTTPPVLDSDGSFFLYSKLTVDKSRWQQGNVFSCSVMHEALHNHYTQKSLSLSPGQRHNNSSLNTGTQMAGHSPNS[left out - about 60 residues]
# notes: also called TNFR × TWEAKR
# What was measured:
# [1] = target: T1, mouse TWEAK; assay: ELISA: plate-coated ligand, Xceptor detected with HRP anti-human IgG-Fc
# Procedure: (§1) Mouse and human ligands (R&D Systems, Minnesota, MN) were added to wells of a 96-well plate at a concentration of 1 μg/ml in PBS (100 μl/well). Plates were incubated at 4° C. overnight. After washing five times with PBS-T, 250 μl Blocking Buffer (PBS-T with 3% BSA) was added to each well, and the plate covered and incubated at room temperature (RT) for 2 hours. Serial three fold dilutions of xceptors were made in Working Buffer (PBS-T with 1% BSA) starting at 300 ng/ml. As a negative control, an irrelevant xceptor was used. The plate was incubated at RT for 1 hour. After washing five times with PBS-T, 100 μl per well of HRP-conjugated anti-human IgG-Fc (1:5000 in Working buffer) was added, the plate covered, and incubated at RT for 1 hour. After washing five times with PBS-T, 100 µl of Quant-Blu substrate (Pierce, Rockford, Ill.) was added to each well. The plate was incubated at RT for 10-30 minutes, and fluorescence measured at 325/420 nm.
# [2] = target: T2, human TWEAK; assay: as above
# Procedure: as §1
binder,measurement,setting,value
B1,binding result,[1],binds
same,binding result,[2],binds
